# Measured values: PubChem BioAssay AID894 (National Center for Advancing Translational Sciences (NCATS), 2007)
# “And” between values parts separate entries of the source, which are not always exact repeats. Equal entries are not always repeated. About 6,500 (4.3%) of roughly 150,000 compounds were called active. The inconclusive results got no clear call from the source; some entries with a clear call stand among them for comparison. The call rests on the fitted dose curve; in most records, active means well fitted inhibition curve with a large enough effect (not every such curve was filed as active); inconclusive means small, poorly fitted or top-dose-only effect, or another doubt; inactive means no such curve, though single readings can be large or run the other way. Potencies of inconclusive entries are doubtful fits and often do not repeat.
# Target: 15-hydroxyprostaglandin dehydrogenase [NAD(+)] (Homo sapiens) (UniProt P15428)
# Assay: qHTS Assay for Inhibitors of HPGD (15-Hydroxyprostaglandin Dehydrogenase)
# Settings: purified HPGD, NADH fluorescence kinetic, PGE2 substrate; activity change, negative = inhibition: hits give low values
# Procedure, shortened: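 NADH formation kinetics: reaction with 30 uM PGE2 and 1 mM NAD+ (final), 20 nM enzyme, Tris-HCl pH 8 with Tween 20, after 15 min compound preincubation at room temperature. Fluorescence change, last versus first of five reads.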
# On the % scale 0 is the no-effect control and ±100 the full control effect; potency means the concentration at half of the fitted maximal effect; tags describe the fitted curve by direction and shape.
# UniProt P15428, sequence (P15428 whole entry, looked up): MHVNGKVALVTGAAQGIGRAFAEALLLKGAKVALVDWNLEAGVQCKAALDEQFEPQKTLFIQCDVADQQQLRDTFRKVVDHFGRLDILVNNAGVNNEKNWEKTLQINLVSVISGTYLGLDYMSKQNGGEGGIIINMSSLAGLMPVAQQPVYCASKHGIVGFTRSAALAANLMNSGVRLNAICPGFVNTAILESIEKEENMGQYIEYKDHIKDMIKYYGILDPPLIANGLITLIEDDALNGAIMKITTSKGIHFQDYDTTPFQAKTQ
SMILES,Potency,"activity change, negative = inhibition"
CCOC(=O)c1ccc(Nc2nc(C)cc(C)c2C#N)cc1,"inconclusive: 39.8 µM [inhibitor, single point]",–
COc1ccc(N(CC(=O)N2CCc3ccccc3C2)S(=O)(=O)c2c(C)nn(C)c2C)cc1,–,inactive: -10%
COc1ccccc1NC(=O)CCC(=O)Nc1nnc(C(F)(F)F)s1,–,inactive: 1.71%
CCOC(=O)CSC1=N/C(=C\c2cccnc2)C(=O)N1c1ccc(OC)cc1,"inconclusive: 35.5 µM [inhibitor, single point]",–
Cc1ccc(NC(=O)C(=O)NCc2ccc(/C=N/NC(=O)c3c(C)nc4ccccn34)o2)cc1,"inconclusive: 28.2 µM [inhibitor, partial curve]",–
CC1CCCN(c2ccc(C(=O)NCc3ccco3)cc2[N+](=O)[O-])C1 (stereo not drawn),"inconclusive: 39.8 µM [inhibitor, single point]",–
Brc1cccc(-c2nnc3sc(CN4CCC5(CC4)OCCO5)cn23)c1,"inconclusive: 22.4 µM [inhibitor, single point]",–
Cc1ccc(C)c2sc(NC(=O)c3ccc(N4CCCCC4)c([N+](=O)[O-])c3)nc12,–,inactive: -11.3%
C=CCOc1ccc2ccccc2c1/C=N/O,active: 2.51 µM,–
CCOC(=O)c1c(-c2ccsc2)csc1N,–,inactive: -10.1%
Cn1cccc1C(=O)NC(=O)COC(=O)c1ccccc1O,"inconclusive: 25.1 µM [inhibitor, partial curve]",–
O=C(CSc1ccccc1)NCc1ccccn1,–,inactive: -14.9%
C/C(=N\NC(=O)c1cccc(S(=O)(=O)Nc2ccccc2Cl)c1)c1ccco1,"inconclusive: 35.5 µM [inhibitor, partial curve]",–
C1CCCC1,–,inactive: -2.28%
O=C(CSc1nnc(-c2cccnc2)n1C1CCCCC1)NC1CCCC1,active: 22.4 µM,–
CCCCNC(=O)c1ccc2c(OCC)n(CCCC)nc2c1,"inconclusive: 28.2 µM [inhibitor, partial curve]",–
CCc1cc2c(=O)[nH]c(Cc3ccccc3)nc2s1,–,inactive: -5.24%
CCCN(CCC)c1nc(C)cc(C(C#N)c2nc3ccccc3o2)n1 (stereo not drawn),"inconclusive: 3.55 µM [inhibitor, full curve]",–
O=C(Cn1nnc(-c2ccccc2)n1)N/N=C/c1cc([N+](=O)[O-])c(Cl)cc1Cl,–,inactive: -0.467%
COC(=O)c1ccccc1NC(=O)c1ccc(-c2ccccc2F)o1,"inconclusive: 25.1 µM [inhibitor, partial curve]",–
Cc1ccc2nc(-c3ccc(NC(=O)COC(=O)c4ccc([N+](=O)[O-])o4)cc3)sc2c1,"inconclusive: 28.2 µM [inhibitor, partial curve]",–
O=C(c1cc2c(s1)-c1ccccc1OC2)N1CCN(c2ccccn2)CC1,"inconclusive: 25.1 µM [inhibitor, single point]",–
COc1ccc(N=Cc2nc(-c3ccco3)oc2O)cc1,–,inactive: -10.1%

SMILES,Potency,"activity change, negative = inhibition"
COCCn1c(SCC(=O)/C=C2\N(C)c3ccccc3C2(C)C)nnc1-c1ccncc1,–,inactive: -8.33%
CCOC(=O)C1CCN(S(=O)(=O)c2cccc(-c3cn4cccnc4n3)c2)CC1,"inconclusive: 28.2 µM [inhibitor, partial curve]",–
COc1ccccc1-n1c(-c2ccc(NS(C)(=O)=O)cc2)n[nH]c1=S,"inconclusive: 25.1 µM [inhibitor, partial curve]",–
O=c1c(-c2ccc3c(c2)OCCO3)coc2c(CN3CCOCC3)c(O)ccc12,"inconclusive: 31.6 µM [inhibitor, partial curve]",–
Cc1cccc(Cn2c(=O)n(Cc3ccco3)c(=O)c3ccccc32)c1,"inconclusive: 44.7 µM [inhibitor, partial curve, poor fit]",–
CC(=O)c1cccc(NC(=O)C(Sc2ncnc3ccccc23)c2ccccc2)c1 (stereo not drawn),"inconclusive: 17.8 µM [inhibitor, partial curve]",–
N#Cc1sc2nc(-c3cccs3)cc(-c3ccccc3)c2c1N,"inconclusive: 28.2 µM [inhibitor, partial curve]",–
CCCCCC(=O)/C=C/C=C\CCCCCCCC(=O)O,–,inactive: -2.58%
CCOC(=O)N1CCC(c2cc(=O)n3[nH]c(-c4ccccc4)cc3n2)CC1,"inconclusive: 31.6 µM [inhibitor, partial curve]",–
CC1(C)CC(=O)C2=C(C1)NC(SCC(=O)Nc1ccccc1)=C(C#N)C21CCCCC1,"inconclusive: 28.2 µM [inhibitor, single point]",–
CCNC(=O)CN(c1ccc(CC)cc1)S(C)(=O)=O,–,inactive: -9.55%
c1ccc2c(COn3nnc4ccccc43)cccc2c1,"inconclusive: 35.5 µM [inhibitor, partial curve]",–
Cc1nn(-c2ccccc2)c(N2CCCC2)c1/C=N/NC(=O)c1ccccc1O,"inconclusive: 28.2 µM [inhibitor, partial curve]",–
CN(C)CC(C)(C)CNS(=O)(=O)c1cccc(Cl)c1Cl,–,inactive: -3.27%
Cc1ccc(-n2nc3c(c2NC(=O)/C=C\c2ccc4c(c2)OCO4)CSC3)c(C)c1,"inconclusive: 39.8 µM [inhibitor, single point]",–
CC(=O)NCCCCCC(=O)O,–,inactive: -5.71%
Cc1c(C(=O)O)oc2ccc(S(=O)(=O)NCCC3=CCCCC3)cc12,"inconclusive: 22.4 µM [inhibitor, partial curve]",–
O=C(Cc1cccs1)NCCSc1c(-c2ccc(Cl)cc2)[nH]c2ccccc12,"inconclusive: 35.5 µM [inhibitor, partial curve]",–
Cn1c(-c2cccc(OCc3ccccc3)c2)nc2c1c(=O)[nH]c(=O)n2Cc1ccccc1,"inconclusive: 25.1 µM [inhibitor, partial curve]",–
[O-][n+]1c2ccc3nonc3c2nn1-c1ccccc1Cl,"inconclusive: 20 µM [inhibitor, partial curve]",–
CCOc1ccc(-c2noc(-c3ccncc3)n2)cc1OCC,"inconclusive: 35.5 µM [inhibitor, partial curve]",–
O=C1C=C(N2CCN(c3ccccn3)CC2)C(=O)c2c(O)ccc(O)c21,–,inactive: -11.8%
Cc1cccc(NC(=S)N(C)Cc2cn(C)c3ccccc23)c1,"inconclusive: 22.4 µM [inhibitor, partial curve]",–

SMILES,Potency,"activity change, negative = inhibition"
COc1ccc(/C(O)=C2/C(=O)C(=O)N(Cc3cccnc3)C2c2ccccn2)cc1 (stereo not drawn),–,inactive: 0.591%
COc1ccc(CNC(=O)COC(=O)c2cc(-c3ccco3)nc3ccccc23)cc1,"inconclusive: 31.6 µM [inhibitor, partial curve]",–
O[C@@H]1[C@@H](OCc2ccccc2)OC[C@H](O)[C@@H]1O,–,inactive: -1.77%
COc1ccc(-c2cc(C(F)(F)F)nc(SCC(=O)NCCN3CCOCC3)n2)cc1OC,"inconclusive: 25.1 µM [inhibitor, partial curve]",–
N#Cc1nc(-c2ccc(F)cc2)oc1NCCN1CCOCC1,"inconclusive: 25.1 µM [inhibitor, single point]",–
O=c1n(CCCN2CCN(c3cccc(Cl)c3)CC2)nc2ccccn12,"inconclusive: 12.6 µM [inhibitor, partial curve] and inconclusive: 28.2 µM [inhibitor, partial curve] and inconclusive: 35.5 µM [inhibitor, partial curve]",–
Cc1c(Cl)cccc1NC(=O)Nc1ccc(C(=O)N2CCCC2)cc1,active: 14.1 µM,–
CC(Oc1ccccc1F)C(=O)/C=C/N(C)C (stereo not drawn),active: 28.2 µM,–
CCOc1ccccc1NC(=O)c1ccc(NC(=O)c2ccco2)cc1,–,inactive: -8.04%
CC(=O)c1c(C)nc2nonc2c1N,"inconclusive: 28.2 µM [inhibitor, partial curve]",–
COc1ccc(S(=O)(=O)Nc2ccc(S(=O)(=O)N3CCCCC3)cc2)cc1,–,inactive: -11.4%
Cc1onc(-c2ccccc2)c1C(=O)Nc1nnc(COc2ccc(Cl)cc2)s1,active: 2.51 µM,–
Oc1ccc(-c2nc(-c3ccc(F)cc3)c(-c3ccncc3)[nH]2)cc1,"inconclusive: 15.8 µM [inhibitor, partial curve] and inconclusive: 25.1 µM [inhibitor, partial curve, poor fit]",–
C=C(C)C1COc2cc3oc(=O)ccc3cc2O1 (stereo not drawn),"inconclusive: 28.2 µM [inhibitor, partial curve]",–
Cc1ccnc(SCC(=O)c2ccc(Br)cc2)c1C#N,active: 28.2 µM,–
O=C1c2ccccc2C(=O)N1CCCCN(C(=O)c1cc([N+](=O)[O-])cc([N+](=O)[O-])c1)c1ccc(Cl)cc1,–,inactive: -7%
Nc1nc(N2CCOCC2)nc2ccccc12,"inconclusive: 31.6 µM [inhibitor, partial curve]",–
N#C/C(=C/c1ccc(-c2ccc(S(N)(=O)=O)cc2)o1)C(=O)Nc1ccccc1,"inconclusive: 12.6 µM [inhibitor, partial curve]",–
CCC1CSC(Nc2ccc(C(=O)/C=C/c3ccc(Oc4ccccc4)cc3)cc2)=N1 (stereo not drawn),"inconclusive: 6.31 µM [inhibitor, single point]",–
O=S(=O)(c1ccc(F)cc1)N1CCN(Cc2ccccc2C(F)(F)F)CC1,"inconclusive: 39.8 µM [inhibitor, single point]",–
Cc1[nH]c2ccccc2c1N=Nc1cccc(C(=O)O)c1,–,inactive: -16.4%
COC(=O)C1=C(C(=O)OC)[C@@H]2N(Cc3ccccc3)c3ccccc3[C@@]23C[C@@H](C(=O)OC)N(S(=O)(=O)c2ccc(OC)cc2)C3=N1,–,inactive: 2.39%
